# Experimental data from the supplement of paper PMC8728848.
# The other results are listed elsewhere or left out.
# B1: XL-35 (Xenopus laevis) (protein)
# chain: MLVHILLLLVTGGLSQSCDPVVIVASKNMVKQLDCDKFRNCKEIKDSNEEAQDGIYTLTSPDGISYQTFCDMTTNGGGWTLVASVHENNMAGKCTIGDRWSSQQGNRADYPEGDGNWANYNTFGSAGGATSDDYKNPGYYDIEAYNLGVWHVPNKTPLSVWRNSSLQRYRTTDGILFKHGGNLFSLYRIYPVKYGIGSCSKDSGPTVPVVYDLGSANLTASFYSPGFRSQFTPGYIQFRPINTEKAALALCPGMKMESCNVEHVCIGGGGYFPEADPRQCGDFAAYDFNGYGTKKFNSAGIEITEAAVLLFYL
# Columns and labels:
# Assay in all cases: glycan array binding signal (z-score within array); higher = stronger binding
# Details in all cases: glycan notation: IUPAC condensed, linker removed
# [1] = biological target: Neu5Ac(a2-6)Gal(b1-4)GlcNAc(b1-2)Man(a1-3)[Man(a1-6)]Man(b1-4)GlcNAc(b1-4)GlcNAc
# Outline: (§1)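 Columns mapping to the same glycan were averaged after glycan names were converted to IUPAC-condensed notation. The data come from 3228 arrays in the Consortium for Functional Glycomics database, limited to those with an available protein sequence. Binding is reported as a within-array Z-score averaged across arrays of one protein sequence and across linkers.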
# [2] = biological target: Neu5Ac(a2-6)Gal(b1-4)GlcNAc(b1-2)Man(a1-3)[Neu5Ac(a2-3)Gal(b1-4)GlcNAc(b1-2)Man(a1-6)]Man(b1-4)GlcNAc(b1-4)GlcNAc
# Outline: as §1
# [3] = biological target: Neu5Ac(a2-6)Gal(b1-4)GlcNAc(b1-2)Man(a1-3)[Neu5Ac(a2-6)Gal(b1-4)GlcNAc(b1-2)Man(a1-6)]Man(b1-4)GlcNAc(b1-4)GlcNAc
# Outline: as §1
# [4] = biological target: Neu5Ac(a2-6)Gal(b1-4)GlcNAc(b1-2)Man(a1-3)[Neu5Ac(a2-6)Gal(b1-4)GlcNAc(b1-2)Man(a1-6)]Man(b1-4)GlcNAc(b1-4)[Fuc(a1-6)]GlcNAc
# Outline: as §1
# [5] = biological target: Neu5Ac(a2-6)Gal(b1-4)GlcNAc(b1-2)Man(a1-6)Man(b1-4)GlcNAc(b1-4)GlcNAc
# Outline: as §1
# [6] = biological target: Neu5Ac(a2-6)Gal(b1-4)GlcNAc(b1-2)Man(a1-6)[Gal(b1-4)GlcNAc(b1-2)Man(a1-3)]Man(b1-4)GlcNAc(b1-4)GlcNAc
# Outline: as §1
# [7] = biological target: Neu5Ac(a2-6)Gal(b1-4)GlcNAc(b1-2)Man(a1-6)[GlcNAc(b1-2)Man(a1-3)]Man(b1-4)GlcNAc(b1-4)GlcNAc
# Outline: as §1
# [8] = biological target: Neu5Ac(a2-6)Gal(b1-4)GlcNAc(b1-2)Man(a1-6)[Man(a1-3)]Man(b1-4)GlcNAc(b1-4)GlcNAc
# Outline: as §1
# [9] = biological target: Neu5Ac(a2-6)Gal(b1-4)GlcNAc(b1-2)[Neu5Ac(a2-6)Gal(b1-4)GlcNAc(b1-4)]Man(a1-3)[GlcNAc(b1-4)][Neu5Ac(a2-6)Gal(b1-4)GlcNAc(b1-2)[Neu5Ac(a2-6)Gal(b1-4)GlcNAc(b1-6)]Man(a1-6)]Man(b1-4)GlcNAc(b1-4)GlcNAc
# Outline: as §1
# [10] = biological target: Neu5Ac(a2-6)Gal(b1-4)GlcNAc(b1-2)[Neu5Ac(a2-6)Gal(b1-4)GlcNAc(b1-4)]Man(a1-3)[GlcNAc(b1-4)][Neu5Ac(a2-6)Gal(b1-4)GlcNAc(b1-4)Man(a1-6)]Man(b1-4)GlcNAc(b1-4)GlcNAc
# Outline: as §1
# [11] = biological target: Neu5Ac(a2-6)Gal(b1-4)GlcNAc(b1-2)[Neu5Ac(a2-6)Gal(b1-4)GlcNAc(b1-6)]Man(a1-6)[Neu5Ac(a2-6)Gal(b1-4)GlcNAc(b1-2)Man(a1-3)][GlcNAc(b1-4)]Man(b1-4)GlcNAc(b1-4)GlcNAc
# Outline: as §1
# [12] = biological target: Neu5Ac(a2-6)Gal(b1-4)GlcNAc(b1-3)Gal(b1-3)GlcNAc
# Outline: as §1
# [13] = biological target: Neu5Ac(a2-6)Gal(b1-4)GlcNAc(b1-3)Gal(b1-4)GlcNAc
# Outline: as §1
# [14] = biological target: Neu5Ac(a2-6)Gal(b1-4)GlcNAc(b1-3)Gal(b1-4)GlcNAc(b1-2)Man(a1-3)[Neu5Ac(a2-6)Gal(b1-4)GlcNAc(b1-3)Gal(b1-4)GlcNAc(b1-2)Man(a1-6)]GalNAc
# Outline: as §1
# [15] = biological target: Neu5Ac(a2-6)Gal(b1-4)GlcNAc(b1-3)Gal(b1-4)GlcNAc(b1-3)Gal(b1-4)GlcNAc
# Outline: as §1
# [16] = biological target: Neu5Ac(a2-6)Gal(b1-4)GlcNAc(b1-3)Gal(b1-4)GlcNAc(b1-3)Gal(b1-4)GlcNAc(b1-2)Man(a1-3)[Neu5Ac(a2-6)Gal(b1-4)GlcNAc(b1-3)Gal(b1-4)GlcNAc(b1-3)Gal(b1-4)GlcNAc(b1-2)Man(a1-6)]GalNAc
# Outline: as §1
# [17] = biological target: Neu5Ac(a2-6)Gal(b1-4)GlcNAc(b1-3)Gal(b1-4)GlcNAc(b1-3)GalNAc
# Outline: as §1
# [18] = biological target: Neu5Ac(a2-6)Gal(b1-4)GlcNAc(b1-3)Gal(b1-4)GlcNAc(b1-3)[Neu5Ac(a2-6)Gal(b1-4)GlcNAc(b1-3)Gal(b1-4)GlcNAc(b1-6)]GalNAc
# Outline: as §1
# [19] = biological target: Neu5Ac(a2-6)Gal(b1-4)GlcNAc(b1-3)Gal(b1-4)GlcNAc(b1-6)[Gal(b1-3)]GalNAc
# Outline: as §1
# [20] = biological target: Neu5Ac(a2-6)Gal(b1-4)GlcNAc(b1-3)Gal(b1-4)[Fuc(a1-3)]GlcNAc(b1-3)Gal(b1-4)[Fuc(a1-3)]GlcNAc
# Outline: as §1
# [21] = biological target: Neu5Ac(a2-6)Gal(b1-4)GlcNAc(b1-3)GalNAc
# Outline: as §1
# [22] = biological target: Neu5Ac(a2-6)Gal(b1-4)GlcNAc(b1-3)[Neu5Ac(a2-6)Gal(b1-4)GlcNAc(b1-6)]GalNAc
# Outline: as §1
# [23] = biological target: Neu5Ac(a2-6)Gal(b1-4)GlcNAc(b1-6)GalNAc
# Outline: as §1
# [24] = biological target: Neu5Ac(a2-6)Gal(b1-4)GlcNAc(b1-6)[Gal(b1-3)GlcNAc(b1-3)]Gal(b1-4)Glc
# Outline: as §1
# [25] = biological target: Neu5Ac(a2-6)Gal(b1-4)GlcNAc(b1-6)[Gal(b1-3)]GalNAc
# Outline: as §1
# [26] = biological target: Neu5Ac(a2-6)Gal(b1-4)GlcNAc6S
# Outline: as §1
# Neu5Ac(a2-6)GalNAc = biological target: Neu5Ac(a2-6)GalNAc
# Outline: as §1
# [27] = biological target: Neu5Ac(a2-6)GalNAc(b1-4)GlcNAc
# Outline: as §1
# [28] = biological target: Neu5Ac(a2-6)GalNAc(b1-4)GlcNAc6S
# Outline: as §1
# [29] = biological target: Neu5Ac(a2-6)GlcNAc(b1-4)GlcNAc
# Outline: as §1
# [30] = biological target: Neu5Ac(a2-6)GlcNAc(b1-4)GlcNAc(b1-4)GlcNAc
# Outline: as §1
binder,measurement,setting,value
B1,glycan array binding signal (z-score),[1],-0.249
same,glycan array binding signal (z-score),[2],-0.126
same,glycan array binding signal (z-score),[3],0.044
same,glycan array binding signal (z-score),[4],0.029
same,glycan array binding signal (z-score),[5],-0.2
same,glycan array binding signal (z-score),[6],-0.115
same,glycan array binding signal (z-score),[7],0.009
same,glycan array binding signal (z-score),[8],-0.725
same,glycan array binding signal (z-score),[9],-0.371
same,glycan array binding signal (z-score),[10],0.185
same,glycan array binding signal (z-score),[11],-0.157
same,glycan array binding signal (z-score),[12],0.091
same,glycan array binding signal (z-score),[13],-0.13
same,glycan array binding signal (z-score),[14],-0.447
same,glycan array binding signal (z-score),[15],-0.208
same,glycan array binding signal (z-score),[16],-0.111
same,glycan array binding signal (z-score),[17],0.385
same,glycan array binding signal (z-score),[18],0.264
same,glycan array binding signal (z-score),[19],-0.293
same,glycan array binding signal (z-score),[20],-0.147
same,glycan array binding signal (z-score),[21],-0.374
same,glycan array binding signal (z-score),[22],-0.519
same,glycan array binding signal (z-score),[23],-0.112
same,glycan array binding signal (z-score),[24],-0.272
same,glycan array binding signal (z-score),[25],0.356
same,glycan array binding signal (z-score),[26],-0.145
same,glycan array binding signal (z-score),Neu5Ac(a2-6)GalNAc,-0.115
same,glycan array binding signal (z-score),[27],-0.041
same,glycan array binding signal (z-score),[28],0.22
same,glycan array binding signal (z-score),[29],0.131
same,glycan array binding signal (z-score),[30],-0.199
